Assay results as given in article PMC4336329 (PLoS ONE, 2015).
The campaign covered roughly 310,000 compounds. About 2,200 (0.71%) showed an effect of 50% or more. The effect is printed as a negative number. The list shows a part of the results.

molecular target: human ether-à-go-go-related gene (hERG) potassium channel (human, UniProt Q12809); experiment: primary screen, population patch clamp on CHO cells stably expressing hERG
Sequence (Q12809 whole entry, looked up): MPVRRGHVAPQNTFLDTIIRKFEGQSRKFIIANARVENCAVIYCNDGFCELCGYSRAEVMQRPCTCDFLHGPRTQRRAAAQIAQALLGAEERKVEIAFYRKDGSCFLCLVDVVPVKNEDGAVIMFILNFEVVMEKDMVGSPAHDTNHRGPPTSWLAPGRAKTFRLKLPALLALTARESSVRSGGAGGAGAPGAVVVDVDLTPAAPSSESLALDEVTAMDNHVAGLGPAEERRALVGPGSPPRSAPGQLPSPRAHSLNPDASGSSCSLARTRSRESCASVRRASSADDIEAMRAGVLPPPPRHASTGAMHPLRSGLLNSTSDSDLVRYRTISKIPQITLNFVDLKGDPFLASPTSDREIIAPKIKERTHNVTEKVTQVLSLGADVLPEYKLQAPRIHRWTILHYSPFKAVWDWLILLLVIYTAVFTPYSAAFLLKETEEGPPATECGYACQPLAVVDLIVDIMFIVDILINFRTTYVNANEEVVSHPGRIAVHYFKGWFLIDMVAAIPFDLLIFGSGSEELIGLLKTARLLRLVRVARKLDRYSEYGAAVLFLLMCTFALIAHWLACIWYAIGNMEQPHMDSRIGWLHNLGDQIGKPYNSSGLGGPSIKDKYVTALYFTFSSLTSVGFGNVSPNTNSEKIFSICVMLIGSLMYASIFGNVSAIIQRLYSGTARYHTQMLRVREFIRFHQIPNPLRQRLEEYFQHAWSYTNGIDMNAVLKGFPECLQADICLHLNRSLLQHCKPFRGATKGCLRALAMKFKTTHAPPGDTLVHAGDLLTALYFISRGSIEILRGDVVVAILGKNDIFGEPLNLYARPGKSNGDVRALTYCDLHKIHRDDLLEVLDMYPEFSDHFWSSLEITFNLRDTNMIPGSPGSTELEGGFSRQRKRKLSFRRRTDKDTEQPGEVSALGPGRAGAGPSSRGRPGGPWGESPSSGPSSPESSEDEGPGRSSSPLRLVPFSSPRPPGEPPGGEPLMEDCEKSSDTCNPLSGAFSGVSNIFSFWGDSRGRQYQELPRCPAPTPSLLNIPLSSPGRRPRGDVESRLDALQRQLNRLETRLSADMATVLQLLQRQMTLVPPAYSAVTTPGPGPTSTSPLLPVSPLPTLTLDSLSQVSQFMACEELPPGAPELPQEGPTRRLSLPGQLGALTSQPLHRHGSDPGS

| Structure (SMILES) | hERG current change (%, negative = inhibition) at 1uM [%] |
| --- | --- |
| Cc1cc(N2CCOCC2)nc2ccc(NC(=S)N3CCCCC3C)cc12 (stereo not drawn) | -3.58 |
| CC(=O)c1ccccc1Oc1ncnc(N)c1[N+](=O)[O-] | 29.5 |
| CCOc1ccc(CCNC(=O)Cn2nc(C)n3cccc3c2=O)cc1OCC | 29.2 |
| COc1nccnc1NS(=O)(=O)c1ccc(NS(=O)(=O)c2ccc(NC(C)=O)cc2)cc1 | 3.87 |
| CCOC(=O)Cc1csc(N/C(=N/S(=O)(=O)c2cc(Br)ccc2OCC)c2ccccc2)n1 | 12.7 |
| COc1ccc(NC(NC(=O)c2cccnc2)C(Cl)(Cl)Cl)cc1 (stereo not drawn) | 7.2 |
| CC(OC(=O)c1nc(Cl)ccc1Cl)C(=O)Nc1ccc2c(c1)OCCO2 (stereo not drawn) | 10.9 |
| COc1ccc(C2CC(=O)N(CC(=O)NCC3CCCO3)c3ccccc3S2)cc1OC (stereo not drawn) | 3.16 |
| Cn1cccc1-c1cc(C(=O)N2CCc3c([nH]c4ccccc34)C2c2ccccn2)[nH]n1 (stereo not drawn) | 10.3 |
| COc1cccc(-c2c(C(=O)N/N=C/c3cccs3)nnn2-c2nonc2N)c1 | 20.7 |
| C/C(Cl)=C\CSc1nnc2n(N)c(=O)c3ccccc3n12 | -5.55 |
| O=[N+]([O-])c1cc(-n2cnnn2)ccc1N1CCC(Cc2ccccc2)CC1 | -10.1 |
| Cc1[nH]n(-c2cccc(Cl)c2)c(=O)c1/C=N/n1c(C)nc2ccccc2c1=O | 18.4 |
| CCNC(=S)NNC(=O)c1cc(-c2ccccc2C)nc2ccccc12 | 8.44 |
| O=C(NCC1CCCCC1)c1cc(S(=O)(=O)N2CCCCC2)ccc1N1CCOCC1 | 9.63 |
| c1csc(-c2nn3c(C4COc5ccccc5O4)nnc3s2)c1 (stereo not drawn) | 16.5 |
| O=C(CNS(=O)(=O)c1ccc(Br)s1)NCc1ccc2c(c1)OCO2 | -27.3 |
| S=c1[nH]nc(-c2ccccn2)n1/N=C/c1ccc(Cl)c(Cl)c1 | 6.06 |
| COc1ccc(C2N(c3ccc(Cl)cc3)N=C(C(C)=O)N(C)N2C(C)=O)cc1 (stereo not drawn) | 11.8 |
| O=Cc1c[nH]c2ncccc12 | 11.9 |
| CCN1CCN(C(=O)c2ccccc2N(Cc2ccccc2)S(C)(=O)=O)CC1 | 7.94 |
| CC(C)C(c1nnnn1Cc1ccc(F)cc1)N1CCN(c2ccc(O)cc2)CC1 (stereo not drawn) | -11.8 |

| Structure (SMILES) | hERG current change (%, negative = inhibition) at 1uM [%] |
| --- | --- |
| C[C@@H](NC(=O)c1nc[nH]c1C(=O)OCc1ccccc1)c1ccccc1 | 11 |
| O=c1[nH][nH]cc1C=Nc1ccc(Cl)cc1Cl | 12 |
| COCCCNc1ncnc2c1sc1nc(-c3ccco3)c3c(c12)CC(C)(C)OC3 | 13.5 |
| O=C(CNc1cccc2ccccc12)N/N=C/c1ccccn1 | 3.94 |
| Cc1ccc(S(=O)(=O)N2CCOCC2)cc1C(=O)Nc1nc(-c2cccnc2)cs1 | 13.9 |
| CCc1ccc(-c2ccc(SCC(=O)NCC3CCCO3)nn2)cc1 (stereo not drawn) | -4.6 |
| CCOc1ccc(/C(O)=C2\C(=O)C(=O)N(c3cc(C)on3)C2c2ccccc2OC)cc1 (stereo not drawn) | 8.91 |
| CCCCc1n[nH]c(=S)n1Cc1ccccc1 | 9.44 |
| Cc1nc(SCC(=O)NCc2ccco2)c2c(C)c(C)sc2n1 | 13.8 |
| CC(C)=CC(=O)Nc1ccccc1C(N)=O | 18.1 |
| COC(=O)C1CCN(Cc2cn(-c3ccccc3)nc2-c2ccc3c(c2)OCO3)CC1 | 9.1 |
| COc1ccc(/C=C/C(=O)N2CCCc3ccccc32)c(OC)c1 | 12.3 |
| COc1ccc(NC(=O)c2coc(C)c2)cc1 | 10.4 |
| CC(C)(C)c1ccc(NC(=O)COC(=O)c2ccc(NS(=O)(=O)c3ccc(F)c(F)c3)cc2)cc1 | 17.3 |
| CC(C)CN(C(=O)COC(=O)c1cc2c(s1)CCC2)C1CCS(=O)(=O)C1 (stereo not drawn) | 14.8 |
| CCN(CC)c1ccc(/C=C2\C(=O)NC(=O)N(CC3CCCO3)C2=O)cc1 (stereo not drawn) | 8.97 |
| Cc1nc(SCc2ccccc2C)n[nH]1 | 10.2 |
| COc1ccccc1CNC(=O)/C=C/c1ccc(S(=O)(=O)N2CCOCC2)cc1 | 6.34 |
| O=c1c(Oc2ccccc2Br)c(C(F)(F)F)oc2c(CN3CCCC3)c(O)ccc12 | 3.14 |
| COc1ccc(OC)c2c1CCC1NCCOC21.Cl (stereo not drawn) | 13.9 |
| COc1cc(NC(=O)C2=CC(c3ccc(C)cc3)=NS(=O)(=O)N2C)cc(OC)c1OC | 4.2 |
| Cc1nc2nc(-c3cccnc3)[nH]n2c(=O)c1Cc1ccccc1 | -5.95 |

| Structure (SMILES) | hERG current change (%, negative = inhibition) at 1uM [%] |
| --- | --- |
| CC(C(=O)NCc1ccco1)n1ccc2cc(S(=O)(=O)N3CCCC3)ccc21 (stereo not drawn) | 11.8 |
| Cc1cc(OC(=O)c2c(C)cc(OC(=O)c3c(C)cc(O)cc3O)cc2O)cc(O)c1C(=O)O | 12.4 |
| COC(=O)c1cc2ccsc2n1CC(=O)Nc1cc(C)cc(C)c1 | 13.4 |
| Cc1ccc(C(=O)N/C(=C\c2cccs2)C(=O)NC2CCCCC2)cc1 | -6.09 |
| Cc1c(NS(=O)(=O)c2cccc(C(=O)Nc3ccccc3)c2)c(=O)n(-c2ccccc2)n1C | 5.73 |
| O=C(NC1CCCCCC1)C1CCN(S(=O)(=O)c2cccc3cccnc23)CC1 | 7.11 |
| Cc1sc(-n2c(C)cc(C=C3C(=O)NC(=O)NC3=O)c2C)c(C#N)c1C | 11.2 |
| COc1ccc(OC)c(C(=O)COC(=O)CNC(=O)c2ccccc2)c1 | 3.56 |
| COc1ccc(-c2n[nH]c(=S)n2-c2ccc(C)cc2)cc1OC | 14.2 |
| NC(=O)C1CCN(C(=O)CCC(=O)c2ccc(Br)cc2)CC1 | 9.54 |
| O=C1CC(c2ccc(OCCCCCOc3ccc(C4CC(=O)NC4=O)cc3)cc2)C(=O)N1 (stereo not drawn) | 5.98 |
| Cc1ccc(N(C)S(=O)(=O)c2cccc(C(=O)Nc3nc4ccccc4[nH]3)c2)cc1 | 4.7 |
| O=c1[nH]ncc2c3ccccc3n(Cc3ccc(F)cc3)c12 | 8.78 |
| CCOC(=O)c1c(NC(=S)Nc2ccc(OCC)cc2)sc2c1CCN(C)C2 | -11 |
| CC(Sc1nnc(C2CC2)n1N)C(=O)NC1CCCCC1C (stereo not drawn) | 1.17 |
| CC(NC(=O)CCn1nc(-c2ccc(Cl)cc2)ccc1=O)c1ccccc1 (stereo not drawn) | -31.7 |
| CCOC(=O)C1CCN(Cc2ccccc2C(F)(F)F)CC1 | 6.38 |
| CC(=O)CCc1oc2ccc(C)cc2c1-c1ccc(C)o1 | 10.6 |
| CCCn1c(=O)cc(N)n(-c2ccc(OC(F)(F)F)cc2)c1=O | 12.2 |
| Cc1ccc(SCc2cc(=O)[nH]c(N3CCOCC3)n2)cc1 | 7.23 |
| O=C(CNc1cccc(S(=O)(=O)N2CCCCCC2)c1)Nc1cccc([N+](=O)[O-])c1 | -7.36 |
| COC(=O)C1C2c3ccccc3OC1(C)N=c1s/c(=C/c3cnn(C)c3)c(=O)n12 (stereo not drawn) | 6.18 |

| Structure (SMILES) | hERG current change (%, negative = inhibition) at 1uM [%] |
| --- | --- |
| CCOC(=O)C1CCCN(C2=NC(=O)/C(=C/c3ccc(N(C)C)cc3)S2)C1 (stereo not drawn) | -0.555 |
| CCOC(=O)C1CCN(C(=O)CN(c2ccc(OC)c(OC)c2)S(=O)(=O)c2ccccc2)CC1 | -4.12 |
| Cc1ncoc1C(=O)N1CCc2c([nH]c3ccccc23)C1c1ccccc1F (stereo not drawn) | 9.09 |
| COc1cc(C(=O)NNC(=O)Nc2ccc([N+](=O)[O-])cc2)cc(OC)c1OC | 9.17 |
| COc1ccc2oc(C(=O)OCC(=O)N3CCCC(C)C3)c(C)c2c1 (stereo not drawn) | 6.03 |
| CSc1ccccc1C(=O)Nc1ccc2c(c1)OCO2 | 7.77 |
| Cc1cccc(Oc2ccc(NS(=O)(=O)c3ccc(C)c(C(=O)O)c3)cc2)c1 | 8.45 |
| C/C(=N\NC(=O)c1ccoc1C)c1ccccc1O | -4.94 |
| COc1ccc(/C=C/C(=O)OCC(=O)Nc2ccc3[nH]c(=O)[nH]c3c2)cc1OC | 1.26 |
| Cc1c(C(=O)O)c(=O)n(-c2ccccc2)n1-c1ccccc1 | 4.38 |
| NC(N)=N/N=C/c1ccc(Cl)c([N+](=O)[O-])c1 | 4.46 |
| COc1cc(S(=O)(=O)Nc2ccc(C)cc2)ccc1NC(=O)c1ccncc1 | 7.08 |
| CN(c1ccccc1)S(=O)(=O)c1cccc(C(=O)NNC(=O)c2ccccc2)c1 | 4.84 |
| Cc1noc(/C=C/N(C)C)c1S(=O)(=O)N1CCCC(C(=O)Nc2ccc3c(c2)OCO3)C1 (stereo not drawn) | 6.94 |
| CCO[C@@H]1OC(C(=O)NCc2ccccc2)=C[C@H](C(C)(C)C)[C@H]1CCCO | 6.9 |
| CCOC(=O)CSc1nnc(C)n1N | 11.2 |
| c1ccc(-c2ccc3c(n2)CCCO3)cc1 | 0.108 |
| CCC(=O)N1CCc2cc(S(=O)(=O)CCC(=O)NCCc3ccccc3)ccc21 | 22.9 |
| N#Cc1ccccc1NC(=O)COC(=O)CCc1ccccc1 | 4.53 |
| CP(=O)(Nc1ccccc1)C(Cl)(Cl)Cl (stereo not drawn) | 9.06 |
| Cc1ccc(C)c(N(C(=O)Cn2nnc(-c3cccs3)n2)C(C(=O)NC2CCCC2)c2ccncc2)c1 (stereo not drawn) | -0.65 |
